Data: the supplement of paper PMC4166925
± gives the standard deviation of the averaged measurements. The full ranking holds about 33,000 sequences; the median of “E-score (dimensionless, -0.5 to 0.5)” is about -0.046, and the highest 2% start at about 0.36. The list shows a part of the results.

System: T1, SpTbr T-box DNA-binding domain (GST fusion)
T1 sequence: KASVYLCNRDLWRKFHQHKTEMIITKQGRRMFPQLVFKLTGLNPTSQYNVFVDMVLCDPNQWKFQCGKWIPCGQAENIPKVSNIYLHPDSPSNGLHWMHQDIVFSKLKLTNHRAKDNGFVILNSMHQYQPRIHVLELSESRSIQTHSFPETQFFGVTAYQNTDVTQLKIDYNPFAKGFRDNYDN
Assay: PBM E-score of 8-mer (E-score (dimensionless, -0.5 to 0.5)); Tbr is Tbrain of the sea star Patiria miniata (Pm) or the sea urchin Strongylocentrotus purpuratus (Sp); higher = stronger binding preference; most listed sequences are background and not binding sites
Conditions: the construct has about 5 more residues each side
Method: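 Universal protein-binding microarray (Agilent AMADID 016060, 60-bp probes with a 35-bp variable region) incubated with 200 nM GST-fused Strongylocentrotus purpuratus Tbr T-box DNA-binding domain (residues 362-554) in PBS pH 7.5. Scored for every ungapped 8-mer (given with its reverse complement) as E-score (range -0.5 to 0.5; >0.45 counts as bound) and Z-score of median probe intensity. Two replicate arrays (datasets 1 and 2).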
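Note: protein at 200 nM in PBS on universal double-stranded arrays.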

In order of falling “PBM E-score of 8-mer” value:
1. AACACATC  0.375 ± 0.012
2. ACACCCTA  0.371 ± 0.01
3. GGTCGCAC  0.365 ± 0.046
4. CGTGAACC  0.353 ± 0.018
5. CCGTTCGC  0.349 ± 0.012
6. ACGCCTTA  0.343 ± 0.028
7. GAGGTGCA  0.338 ± 0.032
8. GTCATCAC  0.329 ± 0.052
9. CACTCACC  0.312 ± 0.019
10. CACGCGAC  0.295 ± 0.035
11. GCGACGAA  0.295 ± 0.022
12. CGACAACA  0.273 ± 0.021
13. ACCTTACA  0.262 ± 0.031
14. CCGCACGC  0.255 ± 0.036
15. GGTGGTGA  0.249 ± 0.011
16. ACGCCTGC  0.249 ± 0.028
17. GCCTGTCA  0.243 ± 0.048
18. ACCTCACG  0.239 ± 0.005
19. AGGCGTGC  0.236 ± 0.052
20. CACATAAC  0.233 ± 0.043
21. CCCTCGCA  0.221 ± 0.12
22. ACACGCAG  0.208 ± 0.027
23. CGCGCATA  0.178 ± 0.011
24. CTCTCAAC  0.171 ± 0.04
25. GAAGTCGC  0.169 ± 0.024
26. CGCCACTC  0.156 ± 0.061
27. CCTCACTA  0.151 ± 0.0033
28. ATCGCGCA  0.151 ± 0.015
29. AAACGTGG  0.144 ± 0.0096
30. ATATGTCG  0.139 ± 0.047
31. AGCGCACG  0.137 ± 0.04
32. GCTGTGCC  0.134 ± 0.06
33. CTAATGCC  0.128 ± 0.016
34. AGAGGATG  0.125 ± 0.024
35. GCATGTGA  0.122 ± 0.046
36. CGACCTTC  0.122 ± 0.0086
37. GCAACTGA  0.1197 ± 0.0011
38. AACACAGG  0.118 ± 0.038
39. GGGCTAAC  0.118 ± 0.018
40. CGTGTTCA  0.113 ± 0.067
41. AACTGACG  0.105 ± 0.021
42. GTAACAAA  0.105 ± 0.062
43. CTCATACA  0.104 ± 0.011
44. CAGCCGAC  0.102 ± 0.058
45. GATCTCGA  0.099 ± 0.0094
46. CGACAGCA  0.0974 ± 0.024
47. TGATATAA  0.0954 ± 0.029
48. AACACTGA  0.0941 ± 0.085
49. CTTCATAA  0.0913 ± 0.004
50. ACCTGAGT  0.087 ± 0.042
51. CACGTCCA  0.0811 ± 0.029
52. CCTAATCA  0.0677 ± 0.062
53. CGTCAGTA  0.0635 ± 0.0067
54. GAACACAA  0.0535 ± 0.085
55. AAGCAACC  0.0517 ± 0.038
56. ACGAACTC  0.0501 ± 0.029
57. GTCGCATA  0.0477 ± 0.0084
58. GGAGATAA  0.0448 ± 0.047
59. ACTGGCAG  0.0387 ± 0.075
60. CGTTCCTA  0.0158 ± 0.031
61. CTATCCAC  0.0121 ± 0.048
62. CGGCGTGC  0.00958 ± 0.15
63. AATTCCAA  0.00919 ± 0.054
64. AGATAATA  0.00791 ± 0.037
65. AAAGCGCC  0.00788 ± 0.0018
66. ACTTCCAT  0.00469 ± 0.14
67. CCTTTTGC  0.00317 ± 0.048
68. ACTACAGA  0.00247 ± 0.033
69. GGTATCGA  -0.00159 ± 0.015
70. ACAGTAGG  -0.00161 ± 0.0019
71. ACACACGA  -0.00198 ± 0.078
72. AAGCAATG  -0.00317 ± 0.014
73. ATCGGAAT  -0.00592 ± 0.013
74. ATTTTCCA  -0.00624 ± 0.023
75. AATACCGC  -0.00703 ± 0.016
76. GCATCCGC  -0.00856 ± 0.1
77. CTTCGCTA  -0.0135 ± 0.042
78. AGAGAAAT  -0.0136 ± 0.08
79. ACTTTAAG  -0.0154 ± 0.043
80. ATTCAGTG  -0.0251 ± 0.042
81. AGGAACCG  -0.0276 ± 0.015
82. TCAGAGAA  -0.03 ± 0.083
83. CCTCTGGA  -0.0301 ± 0.041
84. AGACTATC  -0.0317 ± 0.0024
85. GAGGGAGC  -0.0326 ± 0.0046
86. AAACAGAA  -0.0348 ± 0.034
87. GCAGAGCC  -0.0366 ± 0.084
88. AATATTAG  -0.0409 ± 0.043
89. ACTGCTTG  -0.041 ± 0.067
90. TAACCTTA  -0.0423 ± 0.045
91. CCACGGAA  -0.0496 ± 0.042
92. CCGGCGAG  -0.0522 ± 0.041
93. GTCGGAAC  -0.0533 ± 0.0063
94. CACTGACC  -0.0548 ± 0.045
95. CTCCTTAA  -0.0575 ± 0.006
96. CAGATCAG  -0.0587 ± 0.00064
97. GGGATAAA  -0.0607 ± 0.059
98. CCTTTGGA  -0.0643 ± 0.027
99. CTTATATC  -0.0662 ± 0.058
100. AACTCATC  -0.0679 ± 0.032
101. GAGCTACC  -0.0692 ± 0.038
102. CGGCGTAA  -0.0713 ± 0.059
103. AGGTTTAA  -0.0723 ± 0.017
104. AAGAGATT  -0.0725 ± 0.01
105. CCACTAGG  -0.0743 ± 0.13
106. CGACTATA  -0.07898 ± 0.00039
107. ACCGTATC  -0.0796 ± 0.019
108. TAGGGAGA  -0.082 ± 0.027
109. GACATGCA  -0.0897 ± 0.028
110. AGACCTGA  -0.094 ± 0.0078
111. AGGATCCC  -0.0944 ± 0.12
112. CTTCGGTA  -0.0964 ± 0.027
113. ATGGGTCG  -0.0984 ± 0.0057
114. AAATGAAT  -0.0995 ± 0.085
115. CGATTACC  -0.102 ± 0.044
116. AGTCACTG  -0.103 ± 0.15
117. AGACAAAT  -0.106 ± 0.047
118. AGAGCGCT  -0.111 ± 0.021
119. CTATTGCC  -0.113 ± 0.026
120. AGTCCCCC  -0.114 ± 0.047
121. ATTAGTTA  -0.116 ± 0.11
122. GAGAAGCC  -0.119 ± 0.042
123. AGGCCTTC  -0.121 ± 0.03
124. ATAGTGCC  -0.121 ± 0.013
125. ATACTGCA  -0.122 ± 0.042
126. AGATCCCC  -0.123 ± 0.036
127. ATGGCATA  -0.123 ± 0.018
128. AGAAGAAT  -0.124 ± 0.011
129. CCGCAGCC  -0.128 ± 0.032
130. CATTGACC  -0.129 ± 0.0056
131. GCTCCTAA  -0.131 ± 0.044
132. CTCTTAAA  -0.133 ± 0.084
133. ATGTCCCC  -0.136 ± 0.0072
134. ATCCGACG  -0.137 ± 0.095
135. ATTACTTC  -0.144 ± 0.045
136. ACTGGATC  -0.145 ± 0.029
137. AGGCTAAG  -0.147 ± 0.071
138. TGCCCGAA  -0.147 ± 0.15
139. TAAGGCTA  -0.149 ± 0.077
140. GCCTCTTA  -0.149 ± 0.037
141. GGTCAAAC  -0.151 ± 0.025
142. TATTAGGA  -0.165 ± 0.018
143. AATATACA  -0.1667 ± 0.00086
144. CCCTTGTC  -0.167 ± 0.083
145. AGCCCTAA  -0.175 ± 0.048
146. GCCTCTCC  -0.176 ± 0.05
147. CATATAAG  -0.177 ± 0.021
148. CCTTTAAA  -0.178 ± 0.04
149. GCTCAGAA  -0.179 ± 0.023
150. AGATACAG  -0.179 ± 0.049
151. ATCCCCTG  -0.187 ± 0.032
152. AGTTCGAA  -0.189 ± 0.083
153. AGTCTCGG  -0.192 ± 0.065
154. AGTTGAAG  -0.195 ± 0.022
155. CCAATAAG  -0.199 ± 0.0037
156. ACGTAAAA  -0.201 ± 0.042
157. ATGCTGAA  -0.205 ± 0.04
158. GGTTACTA  -0.2073 ± 0.00022
159. AAGCCATC  -0.208 ± 0.04
160. AGCCCATG  -0.216 ± 0.015
161. AAAACGAG  -0.219 ± 0.0091
162. CTTCCAGA  -0.22 ± 0.011
163. ACATAAGG  -0.2225 ± 0.00057
164. AGGACGAT  -0.225 ± 0.011
165. AGGATAGA  -0.22678 ± 2.8e-05
166. GTATCCGA  -0.234 ± 0.03
167. AAGGCTCT  -0.246 ± 0.05
168. GGCTGGAC  -0.247 ± 0.031
169. GGACGGTA  -0.271 ± 0.032
170. GGGTCCTA  -0.271 ± 0.0097
171. TCCTTAGA  -0.329 ± 0.023
172. ATCGGCCC  -0.34 ± 0.035
